Results taken from PubChem BioAssay AID485281 (National Center for Advancing Translational Sciences (NCATS), 2010).
Out of some 350,000 compounds screened, about 260 (0.074%) were called active. The inconclusive results got no clear call from the source; some entries with a clear call stand among them for comparison. Calls come from the whole dose curve; as a rule, active = well fitted inhibition curve with a large enough effect; inconclusive = small, poorly fitted or top-dose-only effect; inactive = no such curve, though single readings can be large or run the other way. Potencies of inconclusive entries are doubtful fits and often do not repeat.

molecular target: Ferritin light chain (Equus caballus) (UniProt P02791); experiment: qHTS Assay for Identification of Novel General Anesthetics; conditions: apoferritin/1-aminoanthracene competitive binding, fluorescence; series mostly up to 77.5 µM; note: nearly all actives have a fitted effect of over 20% in size
Text: Source: NIH Chemical Genomics Center [NCGC]
Assay Submitter: Roderic Eckenhoff, University of Pennsylvania
Screening Center PI: Christopher P. Austin, NIH
Probe Development: NIH Chemical Genomics Center [NCGC]
Anesthetic development has remained a largely empirical process. There are growing concerns about the cognitive effects of known general anesthetics and acceleration of the onset of neurodegenerative disease. The compounds' toxicity and multiple specific binding targets in the mammalian brain [4] has made them less attractive as drug leads. In this assay, a GABAergic mimetic model system, apoferritin and a profluorescent 1-aminoanthracene ligand (1-AMA), was used to construct a competitive binding assay for identification of novel general anesthetics. The assay was validated for 1-AMA using other known anesthetics, such as isoflurane (CID:3763) and propofol (CID: 4943), [6].
[1] S.L. Bianchi, T. Tran, C. Liu, S. Lin, Y. Li, J.M. Keller, R.G. Eckenhoff, and M.F. Eckenhoff, Brain and behavior changes in 12-month-old Tg2576 and nontransgenic mice exposed to anesthetics. Neurobiol Aging 29 (2008) 1002-10.
[2] Z. Xie, Y. Dong, U. Maeda, R.D. Moir, W. Xia, D.J. Culley, G. Crosby, and R.E. Tanzi, The inhalation anesthetic isoflurane induces a vicious cycle of apoptosis and amyloid beta-protein accumulation. J Neurosci 27 (2007) 1247-54.
[3] P. Honegger, and J.M. Matthieu, Selective toxicity of the general anesthetic propofol for GABAergic neurons in rat brain cell cultures.
[4] M.F. Eckenhoff, K. Chan, and R.G. Eckenhoff, Multiple specific binding targets for inhaled anesthetics in the mammalian brain. J Pharmacol Exp Ther 300 (2002) 172-9.
[5] C.A. Butts, J. Xi, G. Brannigan, A.A. Saad, S.P. Venkatachalan, R.A. Pearce, M.L. Klein, R.G. Eckenhoff, and I.J. Dmochowski, Identification of a fluorescent general anesthetic, 1-aminoanthracene. Proc Natl Acad Sci U S A 106 (2009) 6501-6.
[6] W.A. Lea, J. Xi, A. Jadhav, L. Lu, C.P. Austin, A. Simeonov, and R.G. Eckenhoff, A high-throughput approach for identification of novel general anesthetics. PLoS One 4 (2009) e7150.
Three uL of reagents (free 1-AMA (50% saturated solution of 1-aminoanthracene
in PBS) in columns 3, 4 as negative control and 1-AMA/apoferritin mixture (10 uM horse-spleen apoferritin in 50% saturated 1-aminoanthracene in PBS) in columns 1, 2, 5-48) was dispensed into 1536-well Greiner black assay plates. Compounds (23 nL) were transferred via Kalypsys pintool equipped with 1,536-pin array (10 nL slotted pins, V&P Scientific, San Diego, CA). Titration of the positive control, propofol, were delivered via pin transfer from separate control plates to the 2nd column of each assay plate. The starting concentration of the control, dissolved in DMSO, was at 160 mM, followed by two-fold dilution points in duplicate, for a total of 16 concentrations. The plates were incubated for 10 min at room temperature, and then read on an EnVision HTS multilabel reader (Perkin-Elmer, Waltham, MA) (end point read, 3 min/plate) using Fura2 BFP excitation filter (380 nm, bandwidth 10 nm) and fluorescein emission filter (535 nm, bandwidth 25 nm) set. A LANCE/DELFIA dichroic mirror with a cutoff wavelength at 400 nm was used to maximize signal accuracy and strength. Vehicle-only plates, with DMSO being pin-transferred to the entire column 5-48 compound area, were inserted uniformly at the beginning and the end of each library in order to monitor for and record any shifts in the background. Activity was computed as the normalized fluorescence response relative to free 1-AMA and 1-AMA/apoferritin complex values. Concentration-effect relationships were derived by using curve fitting algorithms developed in-house (http://ncgc.nih.gov/pub/openhts/). A four parameter Hill equation was fitted to the concentration-response data by minimizing the residual error between the modeled and observed responses.
Potency is the fitted concentration of half-maximal effect; tags give direction and shape of the fitted curve.

Sequence of UniProt P02791 (P02791 whole entry, looked up): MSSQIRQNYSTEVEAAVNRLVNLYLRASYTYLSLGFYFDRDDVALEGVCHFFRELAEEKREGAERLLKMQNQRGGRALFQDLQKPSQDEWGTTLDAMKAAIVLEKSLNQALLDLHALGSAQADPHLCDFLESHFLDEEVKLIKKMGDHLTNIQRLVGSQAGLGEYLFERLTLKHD

`Cc1cccc(N2C(=O)/C(=C/c3ccc(N4CCN(C)CC4)o3)C(=O)NC2=S)c1C` was tested. Which Potency did it give?
Its Potency is “inactive”.

How did the Potency turn out when `CC(Cc1ccccc1)NC(=O)/C=C/c1ccc(Cl)cc1` (stereo unspecified) was run?
The Potency was “inactive”.

Which Potency does the source give for `CCC(=O)Oc1ccc2c(c1)CCC1C2CC[C@]2(C)C(OC(=O)CC)CCC12` (stereo partly specified) here?
The Potency was “inactive”.

Which Potency does the source give for `CC[n+]1c(/C=C/N(C)c2ccccc2)sc2ccc(Cl)cc21` here?
The Potency was inconclusive: 28.2 µM [inhibitor, partial curve].

`C=C(C)C1CCC(C)=CC1c1c(O)cc(O)cc1CCCCC` (stereo unspecified) was tested. Which Potency did it give?
The Potency was inconclusive: 20 µM [inhibitor, partial curve].

For `Cc1oc(-c2ccc(Cl)cc2)nc1CN1C(=O)CN=C(c2ccccc2)c2cc(Cl)ccc21`, which Potency is on record?
Its Potency is inconclusive: 31.6 µM [inhibitor, partial curve].

Which Potency does the source give for `COC(=O)C(O)(c1c[nH]c2ccccc12)C(F)(F)F` (stereo unspecified) here?
The Potency was inconclusive: 50.1 µM [inhibitor, single point].

How did the Potency turn out when `O=C(NC1CCCCCC1)c1ccc[nH]c1=S` was run?
Its Potency is inconclusive: 25.1 µM [inhibitor, partial curve].

With `O=C1CN=C(c2ccccc2)c2c(sc3c2CCCC3)N1` as the compound, how does the Potency read?
Its Potency is inconclusive: 31.6 µM [inhibitor, partial curve].

For `CCCCn1c(O)c(C(=O)/C=C/c2c[nH]c3ccccc23)c(=O)[nH]c1=O`, which Potency is on record?
The Potency was “inactive”.

`COc1ccc(NC(=O)Nc2cccc3cccnc23)cc1` was tested. Which Potency did it give?
Its Potency is inconclusive: 28.2 µM [inhibitor, partial curve].

Which Potency does the source give for `CCC(=O)c1ccc(OC(=O)N(C)c2ccccc2)cc1` here?
The Potency was inconclusive: 31.6 µM [inhibitor, partial curve].

`Nc1ccccc1Nc1ccc([N+](=O)[O-])cc1[N+](=O)[O-]` was tested. Which Potency did it give?
The Potency was inconclusive: 50.1 µM [inhibitor, single point].

`CCN(c1ccc(C(O)(C(=O)OC)C(F)(F)F)cc1)S(=O)(=O)c1ccccc1` (stereo unspecified) was tested. Which Potency did it give?
Its Potency is inconclusive: 39.8 µM [inhibitor, single point].

How did the Potency turn out when `CCOC(=O)N(CC)c1ccc(C(O)(C(=O)OCC)C(F)(F)F)cc1` (stereo unspecified) was run?
Its Potency is inconclusive: 31.6 µM [inhibitor, partial curve].

`O=C1NC(=S)N(c2ccc(F)cc2)C(=O)/C1=C\c1ccoc1` was tested. Which Potency did it give?
The Potency was “inactive”.

With `CCc1ccc(-n2nc(C)c3c2NC(=O)CSC3c2ccc(OC)cc2OC)cc1` (stereo unspecified) as the compound, how does the Potency read?
Its Potency is inconclusive: 15.8 µM [inhibitor, partial curve].

Which Potency does the source give for `COc1ccc(-c2nc(C)c(CCNC(=O)C(=O)Nc3c(C)cccc3C)s2)cc1OC` here?
The Potency was inconclusive: 35.5 µM [inhibitor, single point].

`CCN1CCN(C(=O)COc2ccc3c(c2)C(=O)CC2(CCN(C(C)=O)CC2)O3)CC1` was tested. Which Potency did it give?
The Potency was “inactive”.

With `CC(C)NC(=O)NC1C2CC3CC(C2)CC1C3` (stereo unspecified) as the compound, how does the Potency read?
The Potency was inconclusive: 39.8 µM [inhibitor, single point].

How did the Potency turn out when `CC(C)(C)NC(=O)N1c2ccccc2Sc2ccccc21` was run?
Its Potency is inconclusive: 50.1 µM [inhibitor, single point].

Which Potency does the source give for `O=c1[nH]c(O)c(C=Nc2ccc(Cl)c(C(F)(F)F)c2)c(=O)[nH]1` here?
Its Potency is inconclusive: 31.6 µM [inhibitor, partial curve].

How did the Potency turn out when `CN(C)C(=O)Nc1ccc(-n2nc(C(C)(C)C)oc2=O)c(Cl)c1` was run?
The Potency was “inactive”.

For `CCCCCCC(=O)N/N=C/c1c(O)n(C2CC2)c(=S)[nH]c1=O`, which Potency is on record?
The Potency was inconclusive: 50.1 µM [inhibitor, single point].

With `Cn1c(=O)n(C)c2cc(N3CCCC3)c(NC(=O)Nc3ccccc3)cc21` as the compound, how does the Potency read?
Its Potency is inconclusive: 35.5 µM [inhibitor, single point].

For `CC(C)C/C(=N/O)c1cn(C)c2ccccc12`, which Potency is on record?
Its Potency is inconclusive: 22.4 µM [inhibitor, partial curve].

Which Potency does the source give for `Nc1ccccc1N=Cc1c(O)n(CCC2=CCCCC2)c(=O)[nH]c1=O` here?
The Potency was “inactive”.

`CCOc1cc(C=C2C(=O)NC(=O)NC2=O)ccc1OCC(=O)N1CCOCC1` was tested. Which Potency did it give?
The Potency was “inactive”.

With `O=C1Nc2ccccc2C2(CCN(CCc3ccc(C(F)(F)F)cc3)CC2)O1` as the compound, how does the Potency read?
Its Potency is inconclusive: 35.5 µM [inhibitor, single point].

`CCCCCc1nc2c(c(=O)c3ccccc3n2C)c(=O)n1C1CCCCCC1` was tested. Which Potency did it give?
The Potency was inconclusive: 17.8 µM [inhibitor, partial curve].

`O=c1[nH]c(=S)[nH]c(O)c1N=Nc1ccc(S(=O)(=O)N2CCc3ccccc32)cc1` was tested. Which Potency did it give?
The Potency was inconclusive: 35.5 µM [inhibitor, partial curve].

`CC(C)CCNC(=O)c1c(N)n(Cc2ccc3c(c2)OCO3)c2nc3ccccc3nc12` was tested. Which Potency did it give?
Its Potency is “inactive”.

Which Potency does the source give for `CCC(C)C1O[C@]2(C=CC1C)CC1CC(C/C=C(\C)[C@H](OC3CC(OC)C(O[C@H]4CC(OC)[C@@H](O)C(C)O4)C(C)O3)[C@@H](C)/C=C/C=C3\COC4C(O)C(C)=C[C@H](C(=O)O1)[C@@]34O)O2` (stereo partly specified) here?
Its Potency is inconclusive: 22.4 µM [inhibitor, partial curve].

For `O=C1CN=C(c2cccs2)c2c(sc3c2CCCC3)N1`, which Potency is on record?
Its Potency is inconclusive: 31.6 µM [inhibitor, partial curve].

Which Potency does the source give for `CC(C)C(CCN1C(=O)c2ccccc2C1=O)c1ccco1` (stereo unspecified) here?
The Potency was inconclusive: 28.2 µM [inhibitor, partial curve].

With `CC(C)=CCCC1(C)C=Cc2c(O)c3c(c(CC=C(C)C)c2O1)OC12C(=CC4CC1C(C)(C)OC2(C/C=C(/C)C(=O)O)C4=O)C3=O` (stereo unspecified) as the compound, how does the Potency read?
Its Potency is inconclusive: 28.2 µM [inhibitor, partial curve].

With `N=C1/C(=C\c2ccc(OC(=O)c3ccccc3Cl)cc2)C(=O)N=C2SC(N3CCOCC3)=NN12` as the compound, how does the Potency read?
Its Potency is inconclusive: 28.2 µM [inhibitor, partial curve].

For `O=C(CNC(=O)OCc1ccccc1)Nc1ccc(Br)cc1C(=O)c1ccccc1`, which Potency is on record?
The Potency was inconclusive: 17.8 µM [inhibitor, partial curve].

With `O=C(O)c1ccccc1Nc1cccc(C(F)(F)F)c1` as the compound, how does the Potency read?
The Potency was inconclusive: 39.8 µM [inhibitor, single point].

With `CC1C(=O)OC2C1CC[C@@]1(C)C=CC(=O)[C@@]3(C)O[C@@]213` (stereo partly specified) as the compound, how does the Potency read?
The Potency was inconclusive: 17.8 µM [inhibitor, partial curve].

`O=C(CCN1CCOCC1)Nc1ccc(Br)cc1C(=O)c1ccccc1` was tested. Which Potency did it give?
Its Potency is inconclusive: 28.2 µM [inhibitor, partial curve].
